The campaign covered roughly 39,000 compounds. About 220 (0.56%) showed activity. The list shows a part of the results.
Tested on: Escherichia coli K-12 BW25113
Test: relative growth (OD600 normalised to plate interquartile mean) (fraction); higher = less growth inhibition, active = 0.2 or less
Settings: 50 µM; LB; incubation time: overnight (16-24 h)
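Note: static incubation at 37 °C against the wild-type strain, values averaged over two biological replicates.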

| Compound | relative growth |
| --- | --- |
| C[C@@H]1CN([C@@H](C)CO)C(=O)Cc2cc(NS(=O)(=O)c3ccc(F)cc3)ccc2O[C@@H]1CN(C)S(C)(=O)=O | inactive: 1 |
| O=C(C[C@@H]1CC[C@H]2[C@@H](COC[C@H](O)CN2S(=O)(=O)c2ccc(F)cc2)O1)N[C@@H]1CCN(Cc2ccccc2)C1 | inactive: 1.01 |
| Nc1ccc(-n2nn[nH]c2=S)cc1 | inactive: 0.951 |
| C[C@H]1CN([C@@H](C)CO)S(=O)(=O)c2ccc(C#CC3(O)CCCC3)cc2O[C@H]1CN(C)C(=O)Cc1ccncc1 | inactive: 1.02 |
| C[C@@H]1CN([C@@H](C)CO)C(=O)Cc2cc(NC(=O)CCC(F)(F)F)ccc2O[C@@H]1CN(C)S(C)(=O)=O | inactive: 0.979 |
| C=CCN(Cc1ccccc1)C(=O)[C@@H]1N(c2c(Cl)cccc2CO)C(=O)[C@@H]2[C@H](C(=O)O)[C@@H]3C=C[C@@]21O3 | inactive: 1.02 |
| O=C(O)CCCCCCC(=O)O | inactive: 1.02 |
| COc1ccc(NC(=O)N(C)C[C@@H]2Oc3ccc(NC(=O)Nc4cccc5ccccc45)cc3CC(=O)N([C@@H](C)CO)C[C@H]2C)cc1 | inactive: 1 |
| CC(C)CC#Cc1ccc2c(c1)O[C@H](CN(C)C(=O)Cc1cccnc1)[C@H](C)CN([C@H](C)CO)S2(=O)=O | inactive: 0.945 |
| CN1CCN(C(=O)C[C@@H]2C=C[C@H](NC(=O)Cc3ccccn3)[C@H](CO)O2)CC1 | inactive: 1.02 |
| O=C(C[C@H]1CC[C@H](NS(=O)(=O)c2ccccc2)[C@@H](CO)O1)NCc1ccncn1 | inactive: 1 |
| C[C@@H]1CCCCO[C@@H](CN(C)CC2CCCCC2)[C@H](C)CN([C@H](C)CO)C(=O)c2cc(NS(=O)(=O)c3cccs3)ccc2O1 | inactive: 0.989 |
| C[C@@H]1CN([C@@H](C)CO)C(=O)c2cc(NC(=O)Cc3ccccc3)ccc2O[C@@H](C)CCCCO[C@@H]1CN(C)Cc1ccc(C(F)(F)F)cc1 | inactive: 1.04 |
| Cc1ccc(S(=O)(=O)Nc2ccc3c(c2)CC(=O)N([C@H](C)CO)C[C@@H](C)[C@@H](CN(C)Cc2ccc(C(F)(F)F)cc2)O3)cc1 | inactive: 0.968 |
| Nn1c([C@@H](O)c2ccccc2)n[nH]c1=S | inactive: 0.981 |
| C[C@H](CO)N1C[C@H](C)[C@H](CN(C)S(=O)(=O)c2cn(C)cn2)Oc2c(NC(=O)c3cnccn3)cccc2C1=O | inactive: 0.962 |
| C[C@@H]1CN([C@@H](C)CO)C(=O)c2cc(N(C)C)ccc2O[C@@H](C)CCCCO[C@@H]1CN(C)C(=O)Nc1ccc(C(F)(F)F)cc1 | inactive: 0.928 |
| C[C@@H]1CN([C@H](C)CO)C(=O)c2cc(NS(=O)(=O)c3ccccc3)ccc2O[C@@H](C)CCCCO[C@H]1CN(C)C(=O)NC1CCCCC1 | inactive: 0.991 |
| COc1ccc(S(=O)(=O)N(C)C[C@H]2Oc3ccc(NC(=O)c4ccncc4)cc3CC(=O)N([C@@H](C)CO)C[C@@H]2C)cc1 | inactive: 1.03 |
| Cc1ccc(S(=O)(=O)N(C)C[C@@H]2Oc3ccc(NC(=O)Cn4cnnn4)cc3CC(=O)N([C@@H](C)CO)C[C@@H]2C)cc1 | inactive: 0.991 |
| CC1(C)[C@H](C(=O)O)N2C(=O)C[C@H]2S1(=O)=O | inactive: 0.486 |

| Compound | relative growth |
| --- | --- |
| CC(C)NC(=O)Nc1cccc2c1O[C@H](CN(C)S(=O)(=O)c1cn(C)cn1)[C@H](C)CN([C@H](C)CO)C2=O | inactive: 1 |
| C[C@H](CO)N1C[C@H](C)[C@@H](CN(C)S(=O)(=O)c2ccccc2C#N)OCc2cn(nn2)CCCC1=O | inactive: 1 |
| CCCNC(=O)N1C[C@@H]2[C@H](c3ccccc31)[C@@H](CO)N2C(=O)CN1CCOCC1 | inactive: 0.997 |
| Cc1nc2c(cc1C(=O)NN)c(=O)n(C)c(=O)n2C | inactive: 1.01 |
| Cc1noc(C)c1NC(=O)Nc1ccc2c(c1)C(=O)N([C@@H](C)CO)C[C@@H](C)[C@@H](CN(C)Cc1ccc(C(F)(F)F)cc1)O2 | inactive: 0.999 |
| CCOC(=O)N(C)C[C@H]1OCc2cn(nn2)CCCC(=O)N([C@H](C)CO)C[C@@H]1C | inactive: 1.03 |
| C[C@@H]1CN([C@H](C)CO)C(=O)c2cc(NC(=O)Nc3cccc4ccccc34)ccc2O[C@@H]1CN(C)Cc1ccc(C(=O)Nc2ccccc2N)cc1 | inactive: 1.03 |
| CCOC(=O)CCCCCC(=O)Nc1ccc2c(c1)C(=O)N([C@@H](C)CO)C[C@H](C)[C@H](CN(C)S(C)(=O)=O)O2 | inactive: 0.979 |
| C[C@@H]1CN([C@@H](C)CO)C(=O)c2cc(NC(=O)Nc3ccc(C(F)(F)F)cc3)ccc2O[C@@H](C)CCCCO[C@@H]1CN(C)CC1CCCCC1 | inactive: 1.01 |
| C[C@@H]1CN([C@H](C)CO)C(=O)c2cc(NC(=O)c3ccncc3)ccc2O[C@@H]1CN(C)Cc1ccc(C(=O)O)cc1 | inactive: 1.04 |
| CNC[C@H]1Oc2c(NS(=O)(=O)c3cn(C)cn3)cccc2C(=O)N([C@@H](C)CO)C[C@H]1C | inactive: 1.02 |
| C[C@@H](N)c1nc2c(s1)CCCC2 | inactive: 0.962 |
| C[C@@H]1CCCCO[C@H](CN(C)C(=O)Nc2ccc(C(F)(F)F)cc2)[C@H](C)CN([C@H](C)CO)C(=O)c2cc(NS(=O)(=O)c3ccccc3)ccc2O1 | inactive: 0.989 |
| C[C@@H]1CN([C@@H](C)CO)C(=O)c2cc(NC(=O)Nc3ccc4c(c3)OCO4)ccc2O[C@@H](C)CCCCO[C@@H]1CN(C)CC1CCCCC1 | inactive: 1.07 |
| Cc1noc(C)c1S(=O)(=O)Nc1ccc2c(c1)C(=O)N([C@H](C)CO)C[C@H](C)[C@H](CN(C)S(=O)(=O)c1ccc(F)cc1)O2 | inactive: 1.01 |
| COc1ccc(S(=O)(=O)N(C)C[C@H]2OCCCC[C@H](C)Oc3ccc(NS(C)(=O)=O)cc3C(=O)N([C@@H](C)CO)C[C@H]2C)cc1 | inactive: 0.98 |
| CCS(=O)(=O)Nc1ccc2c(c1)C(=O)N(C)[C@@H]1CC[C@@H](CC(=O)NCc3ccc(OC)cc3)O[C@@H]1CO2 | inactive: 1.01 |
| CC(=O)N[C@@H](CCC(N)=O)C(=O)O | inactive: 1.02 |
| COc1ccc(NC(=O)N(C)C[C@H]2Oc3ccc(NC(=O)C4CC4)cc3CC(=O)N([C@@H](C)CO)C[C@H]2C)cc1 | inactive: 1.02 |
| Cc1cccc(S(=O)(=O)N2C[C@H](O)COC[C@@H]3O[C@H](CC(=O)N4CCN(C)CC4)CC[C@H]32)c1 | inactive: 0.941 |
| C[C@@H]1CCCCO[C@@H](CN(C)S(=O)(=O)c2cn(C)cn2)[C@H](C)CN([C@H](C)CO)C(=O)c2cc(NS(C)(=O)=O)ccc2O1 | inactive: 0.993 |

| Compound | relative growth |
| --- | --- |
| CN1CCc2nc(N)sc2C1 | inactive: 1.02 |
| COc1ccc(S(=O)(=O)Nc2cccc3c2O[C@H](CN(C)S(=O)(=O)c2cccs2)[C@H](C)CN([C@H](C)CO)C3=O)cc1 | inactive: 1.02 |
| Cc1ccc(OCCN)c(Br)c1 | inactive: 0.963 |
| CC(=CCC1=C(C)C(=O)c2ccccc2C1=O)CCCC(C)CCCC(C)CCCC(C)C (stereo not drawn) | inactive: 0.945 |
| C[C@H](CO)N1C[C@H](C)[C@H](CN(C)S(=O)(=O)c2ccccc2)Oc2ccc(NC(=O)c3ccncc3)cc2C1=O | inactive: 0.997 |
| Cc1ccc(S(=O)(=O)N(C)C[C@H]2Oc3c(NC(=O)NC(C)C)cccc3C(=O)N([C@H](C)CO)C[C@H]2C)cc1 | inactive: 0.972 |
| C[C@@H]1CCCCO[C@@H](CN(C)CC2CCCCC2)[C@H](C)CN([C@@H](C)CO)C(=O)c2cc(NC(=O)Nc3cccc4ccccc34)ccc2O1 | inactive: 1.01 |
| Nc1nc(N)c2c(n1)CCCC2 | inactive: 0.988 |
| C[C@H](CO)N1C[C@H](C)[C@@H](CN(C)S(=O)(=O)c2ccc(Cl)cc2)OCCCC[C@H](C)Oc2ccc(NS(=O)(=O)c3ccccc3)cc2C1=O | inactive: 1.02 |
| C[C@@H]1CCCCO[C@@H](CN(C)C(=O)CCC(F)(F)F)[C@@H](C)CN([C@@H](C)CO)C(=O)c2cc(NS(=O)(=O)c3ccccc3)ccc2O1 | inactive: 0.994 |
| Cc1noc(C)c1S(=O)(=O)N(C)C[C@H]1Oc2ccc(NS(=O)(=O)c3ccc(F)cc3)cc2CC(=O)N([C@@H](C)CO)C[C@H]1C | inactive: 1.01 |
| Nc1nc(-c2ccc(F)cc2)cs1 | inactive: 0.976 |
| COc1cccc(S(=O)(=O)N[C@@H]2CC[C@@H](CCn3cc(-c4ccccc4OC)nn3)O[C@H]2CO)c1 | inactive: 0.99 |
| C[C@H](CO)N1C[C@H](C)[C@H](CN(C)C(=O)c2ccc3c(c2)OCO3)Oc2cc(-c3cncnc3)ccc2S1(=O)=O | inactive: 0.987 |
| C[C@@H]1CCCCO[C@H](CN(C)C(=O)CCC(F)(F)F)[C@H](C)CN([C@H](C)CO)C(=O)c2cc(NS(=O)(=O)c3cccs3)ccc2O1 | inactive: 1 |
| C[C@H]1CN([C@@H](C)CO)C(=O)c2cccc(NS(=O)(=O)c3ccc(F)cc3)c2O[C@@H]1CN(C)CC1CC1 | inactive: 0.973 |
| C[C@@H]1CN([C@@H](C)CO)C(=O)Cc2cc(NC(=O)c3ccncc3)ccc2O[C@H]1CN(C)Cc1ccc2c(c1)OCO2 | inactive: 0.965 |
| O=C(C[C@@H]1CC[C@H](NC(=O)c2ccc(F)cc2)[C@@H](CO)O1)NCc1ccncn1 | inactive: 0.986 |
| Cc1ccc(S(=O)(=O)N(C)C[C@H]2OCCCC[C@H](C)Oc3ccc(NC(=O)Nc4ccc(C(F)(F)F)cc4)cc3C(=O)N([C@@H](C)CO)C[C@@H]2C)cc1 | inactive: 1.02 |
| CC(C)CC#Cc1ccc2c(c1)O[C@H](CN(C)C(=O)NC1CCCC1)[C@H](C)CN([C@H](C)CO)S2(=O)=O | inactive: 0.931 |
| CCS(=O)(=O)Nc1ccc2c(c1)C(=O)N(C)C[C@@H](OC)[C@@H](C)CN(C(=O)c1ccc3c(c1)OCO3)[C@@H](C)CO2 | inactive: 1.01 |
